{"source": "PubChem BioAssay AID2675", "about": "(National Center for Advancing Translational Sciences (NCATS), 2010)", "note": "Screen size: about 280,000 compounds; about 100 (0.036%) were called active. The shares of active, inactive and inconclusive entries below differ from those in the screen. The call rests on the fitted dose curve; in most records, active means well fitted inhibition curve with a large enough effect in the signal ratio, with a control signal flat (not every such curve was filed as active); inconclusive means small, poorly fitted or top-dose-only effect, or effect the other way, or a change in a side signal; inactive means no such curve, though single readings can be large or run the other way; the % refers to the signal ratio. A potency beside an inconclusive call is a rough fit, not a confirmed value. A note “side channel” means that the fit belongs to a control or component signal, not to the main read-out. Potency means the concentration at half of the fitted maximal effect; tags describe the fitted curve by direction and shape or compound fluorescence and quenching."}
{"biological_target": "Muscleblind-like protein 1 (Homo sapiens) (UniProt Q9NR56)", "sequence (Q9NR56 whole entry, looked up)": "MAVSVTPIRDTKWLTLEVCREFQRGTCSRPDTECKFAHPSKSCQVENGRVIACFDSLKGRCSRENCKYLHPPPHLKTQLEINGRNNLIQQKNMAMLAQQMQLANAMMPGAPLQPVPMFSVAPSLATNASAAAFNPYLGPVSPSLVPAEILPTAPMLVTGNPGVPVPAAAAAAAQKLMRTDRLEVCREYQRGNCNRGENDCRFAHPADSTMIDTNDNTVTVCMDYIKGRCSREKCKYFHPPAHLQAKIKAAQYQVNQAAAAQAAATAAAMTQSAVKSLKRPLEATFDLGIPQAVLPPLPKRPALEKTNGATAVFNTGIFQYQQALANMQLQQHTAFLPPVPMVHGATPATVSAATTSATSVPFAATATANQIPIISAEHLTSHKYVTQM", "assay": "qHTS Assay for Inhibitors of MBNL1-poly(CUG) RNA binding", "conditions": "TR-FRET MBNL1-His/biotin-(CUG)12 binding, 665/545 ratio; series mostly up to 57.5 µM", "procedure,_shortened": "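TR-FRET between His-tagged MBNL1 and biotin-(CUG)12 RNA, detected with Tb anti-His antibody (0.055 ng/ul) and streptavidin-XL665 (5 nM), 60 min at room temperature. Compounds titrated 92 nM to 58 uM; 665/545 nm ratio normalized to buffer and complex controls.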"}
{"compound": "c1ccc(-c2nc(NC3CC3)nc(-n3ccnc3)n2)cc1", "Potency": "inactive"}
{"compound": "COCc1nnc(NC(=O)c2ccc(S(=O)(=O)N(CC(C)C)CC(C)C)cc2)o1", "Potency": "inactive"}
{"compound": "Cc1ccc(NC(=O)COc2ccc(/C=C3/SC(=Nc4ccccc4)N(Cc4cccnc4)C3=O)cc2)cc1", "Potency": "inactive"}
{"compound": "COc1ccc(-c2csc(NC(=O)c3ccccc3Br)c2C(=O)O)cc1", "Potency": "inactive"}
{"compound": "CCOCCCNC(=O)c1cc2c(=O)n3ccccc3nc2s1", "Potency": "inconclusive: 14.1 µM [quencher, side channel, partial curve]"}
{"compound": "Cc1nccn1-c1c2c(c(C#N)c3nc4ccccc4n13)CCC2", "Potency": "inconclusive: 7.94 µM [quencher, side channel, partial curve]"}
{"compound": "N/C(=N\\OC(=O)c1ccccc1F)c1ccc([N+](=O)[O-])cc1", "Potency": "inconclusive: 8.91 µM [quencher, side channel, partial curve]"}
{"compound": "Cc1ccc(C(C)C)c(OCC(=O)NC2CCN(C)CC2)c1", "Potency": "inactive"}
{"compound": "Cc1oc(=O)c(NC(=O)c2ccccc2)cc1C(=O)c1ccccc1", "Potency": "inactive"}
{"compound": "Cc1ccc(C(=O)N2CCN(c3ccc([N+](=O)[O-])c(NCc4cccnc4)c3)CC2)cc1", "Potency": "inconclusive: 11.2 µM [quencher, side channel, partial curve]"}
{"compound": "CCn1c2ccccc2c2nnc(NN)nc21", "Potency": "inconclusive: 12.6 µM [quencher, side channel, partial curve]"}
{"compound": "N#CCC(=O)NNc1c([N+](=O)[O-])cc(C(F)(F)F)cc1[N+](=O)[O-]", "Potency": "inconclusive: 12.6 µM [quencher, side channel, partial curve]"}
{"compound": "O=C(CSCC(=O)Nc1nc(-c2ccc3c(c2)OCO3)cs1)Nc1nccs1", "Potency": "inactive"}
{"compound": "O=C(NCc1ccco1)Nc1cccc([N+](=O)[O-])c1", "Potency": "inconclusive: 14.1 µM [quencher, partial curve]"}
{"compound": "Nc1nc(Cl)nc2c1ncn2[C@H]1C[C@H](O)[C@@H](CO)O1", "Potency": "inactive"}
{"compound": "O=C(NNc1ccc([N+](=O)[O-])cc1)C1CC2CCCC(C1)C2=O", "note": "(stereo unspecified)", "Potency": "inconclusive: 25.1 µM [quencher, side channel, partial curve]"}
{"compound": "O=C(/C(=C(\\[O-])c1ccccc1)[n+]1ccc2ccccc2c1)c1ccc([N+](=O)[O-])cc1", "Potency": "inconclusive: 3.16 µM [quencher, side channel, single point]"}
{"compound": "CN(C)C(=O)CSc1nnc(Cc2ccc([N+](=O)[O-])cc2)o1", "Potency": "inconclusive: 22.4 µM [quencher, side channel, partial curve]"}
{"compound": "COc1ccc(C(=O)C2CCCN(C3Cc4ccccc4C3)C2)c(OC)c1", "note": "(stereo unspecified)", "Potency": "inactive"}
{"compound": "CC1CCCCC1n1c(=S)[nH]c2ccccc2c1=O", "note": "(stereo unspecified)", "Potency": "inactive"}
{"compound": "Cn1c(-c2cc3ccc(OC(=O)C(C)(C)C)cc3oc2=O)nc2ccccc21", "Potency": "inconclusive: 22.4 µM [quencher, side channel, partial curve]"}
{"compound": "Cc1nc2ncccn2c1-c1csc(Nc2ccc(O)cc2)n1", "Potency": "inconclusive: 14.1 µM [quencher, side channel, partial curve]"}
{"compound": "CCOC(=O)CCC(=O)Nc1cccc([N+](=O)[O-])c1", "Potency": "inconclusive: 12.6 µM [quencher, side channel, partial curve]"}
{"compound": "O=C(COc1ccc(-c2ccccc2)cc1)N/N=C/c1ccccc1Br", "Potency": "inconclusive: 100 µM [inhibitor, partial curve]"}
{"compound": "O=C(O)c1ccc(S(=O)(=O)c2ccc3c(c2)C(=O)N(Cc2ccco2)C3=O)cc1", "Potency": "inconclusive: 28.2 µM [quencher, side channel, partial curve]"}
{"compound": "COc1ccc(C(=O)NNC(=O)c2ccncc2)cc1[N+](=O)[O-]", "Potency": "inconclusive: 14.1 µM [quencher, side channel, partial curve]"}
{"compound": "COCCN(C(=O)COC(=O)/C=C/c1ccco1)c1c(N)n(Cc2ccccc2)c(=O)[nH]c1=O", "Potency": "inconclusive: 12.6 µM [quencher, side channel, partial curve]"}
{"compound": "Cc1ccc(O)c(Nc2c3ccccc3nc3ccccc23)c1", "Potency": "inconclusive: 25.1 µM [quencher, side channel, single point]"}
{"compound": "O=C(c1ccco1)N1CCN(S(=O)(=O)c2ccc([N+](=O)[O-])cc2)CC1", "Potency": "inconclusive: 3.55 µM [quencher, side channel, full curve]"}
{"compound": "O=C(O)c1cc(N/N=C/c2ccncc2)ccc1Cl", "Potency": "inconclusive: 39.8 µM [quencher, single point]"}
{"compound": "CC(C)NC(=O)c1onc(CSc2ccc(C(C)C)cc2)c1C(=O)O", "Potency": "inactive"}
{"compound": "COc1ccc(-c2cccc(C(=O)Nc3ccccc3C)c2)cc1", "Potency": "inactive"}
{"compound": "CN1CCN(C(=O)CSc2ccc(C(F)(F)F)cc2[N+](=O)[O-])CC1", "Potency": "inconclusive: 11.2 µM [quencher, side channel, partial curve]"}
{"compound": "O=[N+]([O-])c1ccccc1/C=N/N1CCN(Cc2ccccc2)CC1", "Potency": "inconclusive: 10 µM [quencher, side channel, partial curve]"}
{"compound": "CCCCCCCCCCCCOC1OC(CO)C(O)C(O)C1NC(C)=O", "note": "(stereo unspecified)", "Potency": "inconclusive: 39.8 µM [quencher, side channel, single point]"}
{"compound": "Nc1ccccc1C(=O)NNC1=C(C(=O)C(F)(F)F)CCC1", "Potency": "inactive"}
{"compound": "CCOc1ccc(S(=O)(=O)Nc2nc3ccccc3nc2-n2ccc(=NC(=O)c3ccccc3C)cc2)cc1", "Potency": "inconclusive: 17.8 µM [quencher, side channel, partial curve]"}
{"compound": "N#Cc1cc2c(=O)n3ccccc3nc2n(CCN2CCOCC2)c1=O", "Potency": "inactive"}
{"compound": "Cc1ccc(NC(=O)c2nc(C)n(-c3ccc([N+](=O)[O-])cc3)n2)cc1", "Potency": "inconclusive: 25.1 µM [quencher, side channel, partial curve, poor fit]"}
{"compound": "COc1ccc(-c2nc(-c3ccc(NC(=O)c4ccncc4)cc3)no2)cc1OC", "Potency": "inactive"}
{"compound": "O=[N+]([O-])c1ccc(-c2ccc(S(=O)(=O)NCCN3CCCC3)cc2)cc1", "Potency": "inconclusive: 10 µM [quencher, side channel, partial curve]"}
